Test results as given in the supplement of paper PMC4967469.
IC50 is the fitted dose that halves viability relative to control wells, and lower means more sensitive; fits outside the tested doses are given as limits. AUC, from the same fit, is the share of area under the viability curve across the 256-fold dose range; it is 1 without any effect and falls as sensitivity rises. For some assays here: Where the top dose is marked as inferred, it comes from the curve model; the source does not state it. For some assays here: Drugs with an entry number were screened twice under separate entries, and the two screens often disagree.

Tests used:
Test in all cases: Viability of human cancer cell lines after 72 h of drug (GDSC screen)
Docetaxel = compound: CC(=O)O[C@@]12CO[C@@H]1C[C@H](O)[C@@]1(C)C(=O)[C@H](O)C3=C(C)[C@@H](OC(=O)[C@H](O)[C@@H](NC(=O)OC(C)(C)C)c4ccccc4)C[C@@](O)([C@@H](OC(=O)c4ccccc4)[C@H]21)C3(C)C [Docetaxel]; details: top dose 0.0125 µM
Description: (§1)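 Human cancer cell lines in 384-well plates, medium with 10% serum, drug for 72 h over a 256-fold dose range (nine 2-fold or five 4-fold steps up to the top dose). Adherent lines were fixed and stained with the nucleic acid dye Syto60, suspension lines read with resazurin; signal relative to control wells, capped at 0 and 100%. One two-parameter sigmoid per drug and line, fitted in a mixed model over all curves with the slope shared within a line.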

AMG-706 = compound: CC1(C)CNc2cc(NC(=O)c3cccnc3NCc3ccncc3)ccc21 [AMG-706]; details: top dose 2 µM; top dose inferred
Description: as §1

Cyclopamine = compound: CC1=C2C[C@H]3[C@@H](CC=C4C[C@@H](O)CC[C@@]43C)[C@@H]2CC[C@]12O[C@@H]1C[C@H](C)CN[C@H]1[C@H]2C [Cyclopamine]; details: top dose 16 µM; top dose inferred
Description: as §1

JNK Inhibitor VIII = compound: CCOc1nc(NC(=O)Cc2cc(OC)ccc2OC)cc(N)c1C#N [JNK Inhibitor VIII]; details: top dose 10 µM; top dose inferred
Description: as §1

NSC-207895 = compound: CN1CCN(c2ccc([N+](=O)[O-])c3no[n+]([O-])c23)CC1 [NSC-207895]; details: top dose 20 µM; top dose inferred
Description: as §1

FTI-277 = compound: COC(=O)[C@H](CCSC)NC(=O)c1ccc(NC[C@@H](N)CS)cc1-c1ccccc1 [FTI-277]; details: top dose 1.024 µM; top dose inferred
Description: as §1

YM155 = compound: COCC[n+]1c2c(n(Cc3cnccn3)c1C)C(=O)c1ccccc1C2=O [YM155]; details: top dose 5.12 µM
Description: as §1

OSI-906 = compound: C[C@]1(O)C[C@@H](c2nc(-c3ccc4ccc(-c5ccccc5)nc4c3)c3c(N)nccn32)C1 [OSI-906]; details: top dose 2.56 µM; top dose inferred
Description: as §1

PHA-665752 = compound: Cc1[nH]c(/C=C2\C(=O)Nc3ccc(S(=O)(=O)Cc4c(Cl)cccc4Cl)cc32)c(C)c1C(=O)N1CCC[C@@H]1CN1CCCC1 [PHA-665752]; details: top dose 2 µM
Description: as §1

SB-715992 = compound: Cc1ccc(C(=O)N(CCCN)[C@@H](c2nc3cc(Cl)ccc3c(=O)n2Cc2ccccc2)C(C)C)cc1 [SB-715992]; details: top dose 0.128 µM; top dose inferred
Description: as §1

JQ1 = compound: Cc1sc2c(c1C)C(c1ccc(Cl)cc1)=N[C@@H](CC(=O)OC(C)(C)C)c1nnc(C)n1-2 [JQ1]
Description: as §1

Belinostat = compound: O=C(/C=C/c1cccc(S(=O)(=O)Nc2ccccc2)c1)NO [Belinostat]; details: top dose 20 µM; top dose inferred
Description: as §1

CGP-60474 = compound: OCCCNc1cc(-c2ccnc(Nc3cccc(Cl)c3)n2)ccn1 [CGP-60474]; details: top dose 0.256 µM; top dose inferred
Description: as §1

JNJ-26854165 = compound: c1ccc2c(CCNc3ccc(Nc4ccncc4)cc3)c[nH]c2c1 [JNJ-26854165]; details: top dose 10 µM
Description: as §1

[1] = top dose 1 µM, screen: GDSC drug entry 1218, top dose inferred
[2] = top dose 2.56 µM, screen: GDSC drug entry 163

| Cell Line | AUC (Docetaxel) | IC50 (Docetaxel) [µM] | AUC (AMG-706) | IC50 (AMG-706) [µM] | AUC (Cyclopamine) | IC50 (Cyclopamine) [µM] | AUC (JNK Inhibitor VIII) | IC50 (JNK Inhibitor VIII) [µM] | AUC (NSC-207895) | IC50 (NSC-207895) [µM] | AUC (FTI-277) | IC50 (FTI-277) [µM] | AUC (YM155) | IC50 (YM155) [µM] | AUC (OSI-906) | IC50 (OSI-906) [µM] | AUC (PHA-665752) | IC50 (PHA-665752) [µM] | AUC (SB-715992) | IC50 (SB-715992) [µM] | AUC (JQ1; [1]) | IC50 (JQ1; [1]) [µM] | AUC (JQ1; [2]) | IC50 (JQ1; [2]) [µM] | AUC (Belinostat) | IC50 (Belinostat) [µM] | AUC (CGP-60474) | IC50 (CGP-60474) [µM] | AUC (JNJ-26854165) | IC50 (JNJ-26854165) [µM] |
| --- | --- | --- | --- | --- | --- | --- | --- | --- | --- | --- | --- | --- | --- | --- | --- | --- | --- | --- | --- | --- | --- | --- | --- | --- | --- | --- | --- | --- | --- | --- |
| EW-3 (Ewing sarcoma, adherent) | 0.917 | > 0.0125 | 0.957 | > 2 | 0.982 | > 16 | 0.981 | > 10 | 0.825 | 14.4 | 0.96 | > 1.02 | 0.082 | < 0.02 | 0.802 | 1.47 | 0.957 | > 2 | 0.855 | 0.125 | 0.871 | > 1 | 0.972 | > 2.56 | 0.338 | 0.413 | 0.87 | > 0.256 | 0.91 | > 10 |
| SK-LMS-1 (soft tissue, adherent) | 0.471 | 0.000652 | 0.902 | > 2 | 0.983 | > 16 | 0.965 | > 10 | 0.837 | 12.4 | 0.987 | > 1.02 | 0.022 | < 0.02 | 0.986 | > 2.56 | 0.74 | 0.583 | 0.782 | 0.0508 | 0.983 | > 1 | 0.556 | 0.225 | 0.262 | 0.272 | 0.748 | 0.0792 | 0.861 | 7.79 |
| NCI-SNU-5 (stomach, suspension) | 0.81 | 0.00669 | 0.987 | > 2 | 0.989 | > 16 | 0.986 | > 10 | 0.988 | > 20 | 0.988 | > 1.02 | 0.767 | 1.93 | 0.989 | > 2.56 | 0.366 | 0.0529 | 0.945 | > 0.128 | 0.979 | > 1 | 0.973 | > 2.56 | 0.753 | 6.75 | 0.858 | 0.215 | 0.938 | > 10 |
| LU-134-A (small cell lung carcinoma, suspension) | 0.917 | > 0.0125 | 0.987 | > 2 | 0.986 | > 16 | 0.987 | > 10 | 0.857 | 18 | 0.971 | > 1.02 | 0.033 | < 0.02 | 0.892 | > 2.56 | 0.968 | > 2 | 0.858 | 0.116 | 0.848 | 0.817 | 0.715 | 0.677 | 0.329 | 0.404 | 0.791 | – | 0.974 | > 10 |
| COLO-800 (melanoma, adherent) | 0.45 | 0.000572 | 0.983 | > 2 | 0.985 | > 16 | 0.969 | > 10 | 0.915 | > 20 | 0.988 | > 1.02 | 0.592 | 0.568 | 0.87 | 2.28 | 0.97 | > 2 | 0.59 | 0.014 | 0.986 | > 1 | 0.981 | > 2.56 | 0.834 | 12.4 | 0.937 | > 0.256 | 0.801 | 4.73 |
| A498 (kidney, adherent) | 0.398 | 0.000358 | 0.977 | > 2 | 0.973 | > 16 | 0.978 | > 10 | 0.976 | > 20 | 0.86 | > 1.02 | 0.786 | 3.54 | 0.924 | > 2.56 | 0.857 | > 2 | 0.961 | > 0.128 | 0.969 | > 1 | 0.709 | 0.85 | 0.952 | > 20 | 0.77 | 0.15 | 0.8 | 8 |
| LB373-MEL-D (melanoma, adherent) | 0.88 | 0.0124 | 0.958 | > 2 | 0.981 | > 16 | 0.989 | > 10 | 0.899 | > 20 | 0.962 | > 1.02 | 0.027 | < 0.02 | 0.936 | > 2.56 | 0.99 | > 2 | 0.968 | > 0.128 | 0.989 | > 1 | 0.857 | 2.01 | 0.423 | 0.775 | 0.708 | 0.061 | 0.99 | > 10 |
| NCI-H211 (small cell lung carcinoma, adherent) | 0.905 | > 0.0125 | 0.974 | > 2 | 0.961 | > 16 | 0.979 | > 10 | 0.744 | 6.09 | 0.979 | > 1.02 | 0.026 | < 0.02 | 0.893 | > 2.56 | 0.98 | > 2 | 0.615 | 0.0164 | 0.859 | 0.796 | 0.724 | 0.676 | 0.142 | 0.0995 | 0.856 | 0.198 | 0.987 | > 10 |
